# Measurements reported in article PMC4336329 (PLoS ONE, 2015).
# The whole screen tested about 310,000 compounds, of which about 2,200 (0.71%) showed an effect of 50% or more. Effects have a minus sign here. This is one part of the list.
# Target: human ether-à-go-go-related gene (hERG) potassium channel (human, UniProt Q12809)
# Test: primary screen, population patch clamp on CHO cells stably expressing hERG
# Sequence of human ether-à-go-go-related gene (hERG) potassium channel (Q12809 whole entry, looked up): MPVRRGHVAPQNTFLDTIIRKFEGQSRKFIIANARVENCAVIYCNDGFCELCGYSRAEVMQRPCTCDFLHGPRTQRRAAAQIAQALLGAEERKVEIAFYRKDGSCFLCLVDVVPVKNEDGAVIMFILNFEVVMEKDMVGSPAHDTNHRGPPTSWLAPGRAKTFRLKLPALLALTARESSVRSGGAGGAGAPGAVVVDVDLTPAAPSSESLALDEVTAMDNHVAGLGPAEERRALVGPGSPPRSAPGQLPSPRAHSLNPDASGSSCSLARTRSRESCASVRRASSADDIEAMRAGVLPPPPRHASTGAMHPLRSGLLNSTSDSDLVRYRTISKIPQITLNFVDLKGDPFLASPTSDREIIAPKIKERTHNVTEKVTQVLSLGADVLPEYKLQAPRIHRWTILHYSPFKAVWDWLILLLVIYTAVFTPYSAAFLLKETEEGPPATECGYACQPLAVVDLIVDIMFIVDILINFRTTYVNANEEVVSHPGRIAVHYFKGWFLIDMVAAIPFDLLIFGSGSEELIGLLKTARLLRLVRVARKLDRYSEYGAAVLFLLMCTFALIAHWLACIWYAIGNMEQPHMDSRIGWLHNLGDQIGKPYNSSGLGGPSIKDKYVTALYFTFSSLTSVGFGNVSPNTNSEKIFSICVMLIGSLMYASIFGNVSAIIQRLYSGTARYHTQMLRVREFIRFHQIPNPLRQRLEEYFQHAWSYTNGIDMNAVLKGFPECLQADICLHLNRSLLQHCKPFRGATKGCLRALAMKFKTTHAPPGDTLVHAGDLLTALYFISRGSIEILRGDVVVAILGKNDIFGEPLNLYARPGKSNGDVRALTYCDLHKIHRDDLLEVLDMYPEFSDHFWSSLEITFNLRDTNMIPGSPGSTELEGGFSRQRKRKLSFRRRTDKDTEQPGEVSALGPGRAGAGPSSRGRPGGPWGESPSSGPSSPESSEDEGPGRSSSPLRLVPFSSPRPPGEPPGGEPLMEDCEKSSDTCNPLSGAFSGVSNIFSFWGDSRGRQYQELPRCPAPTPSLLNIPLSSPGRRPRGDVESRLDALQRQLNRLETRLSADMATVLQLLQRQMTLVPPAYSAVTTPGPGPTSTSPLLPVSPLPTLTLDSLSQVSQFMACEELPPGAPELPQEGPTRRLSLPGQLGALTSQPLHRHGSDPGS
row,SMILES,"hERG current change (%, negative = inhibition) at 1uM"
1,Cc1ccc(Cl)cc1Nc1nc(N2CCOCC2)nc(N2CCOCC2)n1,7.4%
2,CCc1ccccc1NC(=O)c1sc2nc(C)cc(C)c2c1N,9.99%
3,C/C(=N\NC(=O)NC1CCCCC1)c1ccc(Cl)s1,12.3%
4,CCOc1ccc(CN2CCN(Cc3cccn3-c3ncccn3)CC2CCO)cc1 (stereo not shown),-84%
5,CC(NC(=O)COc1ccc(Br)cc1)C1CCCO1 (stereo not shown),14.6%
6,COc1ccc(Cc2nnc(SCC(=O)NC3(C#N)CCCCC3)n2N)cc1,11.7%
7,CCCCOc1ccc(-c2nc(-c3cccnc3)no2)cc1,0.657%
8,Cc1ccc2[nH]c(=O)c(C(c3nnnn3CC3CCCO3)N3CCCc4ccccc43)cc2c1 (stereo not shown),-11.7%
9,CCC(=O)Nc1ccc(-c2ccc(N3CCCCC3)nn2)cc1,19.4%
10,COc1ccc(C2CC(=O)Oc3c(C(CCN4CCOCC4)c4cc(OC)c(OC)c(OC)c4)c(OC)cc(OC)c32)cc1 (stereo not shown),14.6%
11,COC(=O)Cc1c(O)ccn(C2CC2)c1=O,2.25%
12,COc1ccc(NS(=O)(=O)c2cccc(NC(=O)c3ccc(Cl)nc3)c2)cc1,1.06%
13,COc1ccc(-n2c3c(cc(C(=O)NNc4ccccc4C)c2=O)C(=O)CC(C)(C)C3)cc1,15.2%
14,COC(=O)c1ccc(NC(=O)c2ccccc2NS(C)(=O)=O)cc1,7.41%
15,O=C(Nc1ccc2c(c1)OCO2)c1ccc(S(=O)(=O)NCC2CCCO2)cc1 (stereo not shown),14.8%
16,O=C1CC(N2CCN(Cc3ccc4c(c3)OCO4)CC2)C(=O)N1c1cccc2ccccc12 (stereo not shown),9.23%
17,COc1ccc(NS(=O)(=O)c2ccc3c(c2)[C@H]2C=CC[C@H]2[C@@H](c2ccc(C(=O)O)cc2)N3)cc1,18.1%
18,COC(=O)c1cc(C#N)c(OC(C)C)nc1C,5.15%
19,Cc1ccccc1N1C(=O)CC2(CCCC2)CC1=O,12.5%
20,CCOC(=O)C(C(C)=O)C(c1ccc(OC)cc1)C(C(C)=O)C(=O)OCC (stereo not shown),-0.0659%
21,CC1(C)CC(=O)c2c(n(-c3cccc4ccccc34)ccc2=O)C1,15%
22,COC(=O)C1=C(C)N(Cc2ccc(OC)c(OC)c2)C(=O)C1,8.42%
23,Cc1cc(C)n(C(=O)CNc2ccc(C)c(C)c2)n1,8.86%

row,SMILES,"hERG current change (%, negative = inhibition) at 1uM"
1,Cn1c(C(=O)Nc2ccc3c(c2)OCCO3)cc2c(=O)n(C)c3ccccc3c21,8.01%
2,O=C(N/N=C/c1ccc2c(c1)OCO2)C1COc2ccccc2O1 (stereo not shown),17.2%
3,COc1ccc(N(C(C)C(=O)NCc2ccco2)S(C)(=O)=O)cc1 (stereo not shown),8.88%
4,Cc1ccc(NS(=O)(=O)c2ccc3[nH]c(=O)oc3c2)c(C)c1,6.5%
5,CCOC(=O)/C(=N\Nc1ccccc1)c1csc(Nc2ccc(C)cc2)n1,10.1%
6,COC(=O)c1sc(-c2ccccc2)cc1NC(=O)c1ccc(F)cc1,6.03%
7,CCCCCNC(=O)c1cc(S(=O)(=O)N2CCCCC2)ccc1F,-4.63%
8,C=CCN(CC(=O)O)S(=O)(=O)c1ccccc1C(F)(F)F,10.8%
9,COc1ccc2c(CC(=O)N[C@@H](Cc3c[nH]c4ccccc34)C(=O)O)cc(=O)oc2c1,49.3%
10,Cc1cc(/C=N/O)c(C)n1-c1ccc(Br)cc1,5.4%
11,CCCCOC(=O)c1cccc(NC(=O)CC)c1,-1.41%
12,Cc1ccc(C(=O)Nc2c(-c3cccs3)nc3cc(C)ccn23)cc1,6.61%
13,COc1ccc2nc(-c3ccc(Cl)cc3)cc(C(=O)O)c2c1,23%
14,Oc1c(Br)cc(/C=N/n2c(-c3ccccc3)n[nH]c2=S)cc1Br,19.3%
15,C1=C(CCNCC2CCCCC2)CCCC1.Cl,-8.71%
16,CCC(C)NC(=O)Cn1nc(C(F)(F)F)c2c1CCCC2 (stereo not shown),12.3%
17,CCOC(=O)Cn1c(=O)oc2cc(S(=O)(=O)NCc3ccccn3)ccc21,2.39%
18,O=[N+]([O-])c1ccc(NCCNc2ccc(Cl)nn2)cc1,-14.1%
19,O=C(NCCc1ccc(Cl)cc1)C1=CC=CN2CCS(=O)(=O)N=C12,0.873%
20,COc1ccc2[nH]c(=O)c(CN(C(=O)C3CCCO3)c3ccc(C)cc3)cc2c1 (stereo not shown),1.96%
21,COc1cccc(C(=O)Nc2cccc(C(C)=O)c2)c1,11.4%
22,Cc1cccc(NC(=O)Nc2cc(C)on2)c1,12%
23,Cc1ccc(-c2noc(C3CCCN(C(=O)c4cccc([N+](=O)[O-])c4)C3)n2)o1 (stereo not shown),-20.7%
